Read counts are not given, so values of variants with three or more changes are uncertain.
B1: OR4K15 (parent)
chain: GUUAACGGUCAUAGGCCAUGGAAACUAGGAGCACCAUUUCGCUGCCAGUGAAGAAAUGAACAAAGAAAAUCUGGGCCAGGCAGGCAUCAAAAGAAAUAGUCUUGCGCUCAACCAGAAAGUCUGUAAUCAUUUUAAGGGUA

Variants of: B1
Experiment: self-cleavage, relative activity (ratio to wild type); higher = more cleavage; in vitro, sequencing; the parent is a self-cleaving ribozyme

Variant	self-cleavage
A69U A90G U102C U103C	0.04
A67G U103C A135G	1.5
A67G U103C A135U	1.03
A67G U100C A111G G136A	0.02
U70A A86G C112U A126G	0.01
A69G U72A A114G A125G	0.05
A69G A90G G93A U102G	0.21
A69G C101A U120C	0.05
A69G A117C U127A	1.69
A68G U127C U130C	0.66
A68U U87C A89G U102C	2.65
U70C A117G U132A	2.17
A68G A114G A126G	0.37
A69G A118G U130G	0.22
U70C A110U A117G	1.6
A68G A89U U100C	2.29
A69U A96G U100C	2.4
A68G A111G A140G	0.02
U70C C85U A117G	1.09
A67G A92U U103C	1.24
A69G G75C U122C	0.07
U70A G99A U103C	0.05
A67G A110G U127C	0.09
A68G G83A U102A	0.21

Variant	self-cleavage
A68G A86G U131C	0.61
A68G A78G A129C	0.18
U70C U72C A110G U130C	0.07
U70C U102C A114G U127C	0.07
A69G C85U A116G	0.43
A68G A96G A126G	1.39
U70C C76G A78C U130C	0.09
A67G U102C U132C	2.4
U70C A110G A118G U122C A125G	0.01
A68G G99A A117G	0.58
A67G U72A A82U U108C	0.01
A68G A90C U132C	0.81
A68G A92G U100A	1.18
A68G U72C U127A	0.5
A68G U87C U127A U131C	0.85
U70A U100C A110G	0.26
A67G U120C U124A	0.78
A68G A92G U100A A117G	0.6
U70C G80U U122A	0.09
A69G G74U A114U	0.03
A68G A96G A117G	2.71
A68G A69G A92G	0.84
A67G U100C G106A	0.01
U70C U72A A78G	0.18

Variant	self-cleavage
A68G A96C U124A	0.37
A69G U70C A90G U108C A116U A118G U131C	0
A68U A78C A114G U122A	0.06
U70C A94U U102A U127C	0.08
U70C A82G U108A A118G	0.02
A68G U127C G136A	0.87
A68G A91G U132A	0.97
A68G A89G G137A	0.64
U70C U102C A110G A129U	0.12
A68G U100C U127C	1.14
U70A G93A U139C	1.45
A69G A96C U103C	0.11
A67G A96G A98G	0.96
A68G A91G A114U	0.02
A67G G106A U108C A118G	0.02
U70C U102C U130C	1.59
U70A A82G A89G U100A	0.05
A69G A114G U122C U130C	0.03
A67U A96G U103C	1.46
A67G U72A G83A A95G U120G U132C	0.28
A68U A82G A91G	0.16
U70C U108C A116G A134U	0
A68G G73A U130C	0.22
A67U A78G A89G	0.21

Variant	self-cleavage
A68U A69G U122C	0.73
A68G U70C U87C	0.39
A69C C121U A126G	1.29
A68G A94G U102C	1.11
A68G A78G A95G	0.4
A69G U87C A94G U139C	1.52
A68G A125G A126C	0.41
A68G U87C A92G	1.8
A69G A95G U102C A111U	0.1
A67G U72A A86G U139C	0.27
A68G A89G U100C	2.51
A67U U102A A111U U132C	0.06
A67G U72C A129G	0.07
U70A A91G U132C A135U	0.82
A69G U103C A114G	0.16
A68G A114U A118G	0.03
U70C A78G A82G U122C	0.14
A68G U70C A94G	0.62
U70C A78G C113U	0.01
A68G A90G U100A	0.32
U70C A92G G93A A110G A116G	0.14
U70C U72C A78C A86U U108C U132C	0.01
A69G A78G U103C	0.04
A69G A110G U122C	0.08

Variant	self-cleavage
A67G A95G U102C U131C	2.84
A68G U70C A114G	0.1
A69G U97A U133C	0.97
A68G A96G A116G	0.95
A68G A78G A111G	0.03
A69G G83A C107U U124C	0.01
A68G U72A U120C	0.11
U70C G84C A91G A92G	0.24
A69G G75C A111G G123A	0.11
A69G A135U U139C	0.79
A67G U102C A140G	1.8
U70C A82U U102C	0.39
A67G G106U A111G	0.03
A68G U87A U102C	1.61
A68G U102A A117U U130C	0
A69G C105U A126G	0.06
A69U U97C U139G	1.63
A67G U102C A111G	0.01
U70C U122C A126G	0.44
A68U A82U A95C A110G	0.05
A67G U100A A110G U133C	0.21
A68G U102C U122C	1.72
A68G A92G A116G	0.87
A68G U100C A126U U139A	2.45

Variant	self-cleavage
A69G A86U A89G	1.19
A68G A91U U102A	0.92
A68G C105U A116G	0.05
A67G A96G U103A	0.34
A69U U87C A92G	1.6
U70C A95G A110G	0.15
A68U U72C A78U A95G	0.12
A69U A96U U124C	2.04
U70A A86G U87C	0.9
A67G A118G U122C U127C	0.15
A67G U102C U124A	1.08
A69G U102C U122C	0.85
A69G U102C A126G	0.88
A67G U103C A111G	0
A69G U103C U108C	0.02
U70C A110G A129G	0
A69G A98G G104A U132C	0.01
A68G A82C A117G U120C	0.04
A67G A114U U131C	0.02
U70A A82G U130C	0.19
A67G C107G U131C	0.03
A68G G75C A116G	0.01
U70C A89U U100A	0.52
A67G G104A A117G A134G	0.01

Variant	self-cleavage
U70C G74A A78U	0.04
A68G A110G U127C	0.03
A67G A114G A135U	0.36
A69G A94G U102A A111G	0.03
U70A U122A A134U	1.16
A68G A86U A89G	1
A68G A95G A110U	2.01
A67G U108C A140U	0.02
A69G A86U U87G	1.72
U70C A95G A118G U124C U127C	0.17
A68G A91G A117G	1.47
U70C A94G U120C	0.16
A68G U122C A129G	0.79
A68U C77A U127A	0.92
A67G U100A A110G	0.03
A67G C109A A129G	0.14
A67G A96G A116G	0.18
A68U U72C U102A	0.16
A67G U72C A94G	0.33
U70A A91U U97C U127C	0.59
A69G U70C A96G A129G	0.09
A67G A92U U131C	1.38
A69G G123U U139C	2.14

Source: the RNAGym collection of RNA variant scans (doi:10.7554/elife.90254)
